Measured values published in publication PMC12820563, “FoxP3 forms a head-to-head dimer in vivo and stabilizes its multimerization on adjacent microsatellites”.
This is one part of the list.

Target: T1, MBP-FoxP1dN (Mus musculus, UniProt P58462 326-579)
T1 sequence: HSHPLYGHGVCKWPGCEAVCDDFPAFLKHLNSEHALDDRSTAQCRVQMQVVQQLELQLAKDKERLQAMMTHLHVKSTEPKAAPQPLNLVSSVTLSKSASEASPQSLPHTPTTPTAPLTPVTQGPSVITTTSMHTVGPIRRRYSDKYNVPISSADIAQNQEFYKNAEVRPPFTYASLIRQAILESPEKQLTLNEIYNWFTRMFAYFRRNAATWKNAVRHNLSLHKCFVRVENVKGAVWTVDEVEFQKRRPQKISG
Assay: PD-seq (MBP pull-down with sequencing); 20 mM Tris-HCl pH 7.5, 100 mM NaCl, 1.5 mM MgCl2, 0.4 uM protein, 0.1 uM dsDNA library, 30 min, room temperature, amylose pull-down; high values mean tight binding
Details: protein: recombinant; tags: His6-MBP; chain copies: 2; dsDNA, one strand shown
Procedure, shortened: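 A degenerate double-stranded DNA library, filled in with Klenow, was added at 0.1 µM to 0.4 µM His6-MBP-tagged mouse FoxP3 or FoxP1 fragment lacking the N-terminus, expressed in E. coli. Incubation lasted 30 min at room temperature in Tris pH 7.5 buffer with NaCl and MgCl2, after which complexes were collected on amylose resin, washed three times, digested with proteinase K to free the DNA, barcoded by PCR and sequenced by Illumina. Binding is the pooled-replicate reads-per-million enrichment of pull-down over input.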

Row | Sequence | binding signal
1 | GATGATTGTTCTCCCAGCTGATGAATTGAGCGGCTCGAGTAAACAAATTTTCCTAATCTTTCTGTTCAAGCGCCATCTAC | 0.726 RPM ratio (pull-down/input)
2 | GATGATTGTTCTCCCAGCTGATGAATTCGTATGCTCGAGTAAACAAATTTTCCTAATCTTTCTGTTCAAGCGCCATCTAC | 0.899 RPM ratio (pull-down/input)
3 | GATGATTGTTCTCCCAGCTGATGAATTCGAAACGTCGAGTAAACAAATTTTCCTAATCTTTCTGTTCAAGCGCCATCTAC | 0.878 RPM ratio (pull-down/input)
4 | GATGATTGTTCTCCCAGCTGATGAATTCTCGAGTTCGAGTAAACAAATTTTCCTAATCTTTCTGTTCAAGCGCCATCTAC | 0.782 RPM ratio (pull-down/input)
5 | GATGATTGTTCTCCCAGCTGATGAATTGATTACTTCGAGTAAACAAATTTTCCTAATCTTTCTGTTCAAGCGCCATCTAC | 1.48 RPM ratio (pull-down/input)
6 | GATGATTGTTCTCCCAGCTGATGAATTCTAGTCGTCGAGTAAACAAATTTTCCTAATCTTTCTGTTCAAGCGCCATCTAC | 0.894 RPM ratio (pull-down/input)
7 | GATGATTGTTCTCCCAGCTGATGAATTTCAGTCCTCGAGTAAACAAATTTTCCTAATCTTTCTGTTCAAGCGCCATCTAC | 0.712 RPM ratio (pull-down/input)
8 | GATGATTGTTCTCCCAGCTGATGAATTTAATTCATCGAGTAAACAAATTTTCCTAATCTTTCTGTTCAAGCGCCATCTAC | 0.965 RPM ratio (pull-down/input)
9 | GATGATTGTTCTCCCAGCTGATGAATTGACTCGCTCGAGTAAACAAATTTTCCTAATCTTTCTGTTCAAGCGCCATCTAC | 0.934 RPM ratio (pull-down/input)
10 | GATGATTGTTCTCCCAGCTGATGAATTAGCTCAATCGAGTAAACAAATTTTCCTAATCTTTCTGTTCAAGCGCCATCTAC | 0.99 RPM ratio (pull-down/input)
11 | GATGATTGTTCTCCCAGCTGATGAATTCTATAGATCGAGTAAACAAATTTTCCTAATCTTTCTGTTCAAGCGCCATCTAC | 0.873 RPM ratio (pull-down/input)
12 | GATGATTGTTCTCCCAGCTGATGAATTCGAAGTTTCGAGTAAACAAATTTTCCTAATCTTTCTGTTCAAGCGCCATCTAC | 0.876 RPM ratio (pull-down/input)
13 | GATGATTGTTCTCCCAGCTGATGAATTCAGAAGTTCGAGTAAACAAATTTTCCTAATCTTTCTGTTCAAGCGCCATCTAC | 0.836 RPM ratio (pull-down/input)
14 | GATGATTGTTCTCCCAGCTGATGAATTCTACATATCGAGTAAACAAATTTTCCTAATCTTTCTGTTCAAGCGCCATCTAC | 1.02 RPM ratio (pull-down/input)
15 | GATGATTGTTCTCCCAGCTGATGAATTTCTATAATCGAGTAAACAAATTTTCCTAATCTTTCTGTTCAAGCGCCATCTAC | 1.1 RPM ratio (pull-down/input)
16 | GATGATTGTTCTCCCAGCTGATGAATTAATCATCTCGAGTAAACAAATTTTCCTAATCTTTCTGTTCAAGCGCCATCTAC | 0.993 RPM ratio (pull-down/input)
17 | GATGATTGTTCTCCCAGCTGATGAATTTAGCATGTCGAGTAAACAAATTTTCCTAATCTTTCTGTTCAAGCGCCATCTAC | 0.99 RPM ratio (pull-down/input)
18 | GATGATTGTTCTCCCAGCTGATGAATTCTAGGTATCGAGTAAACAAATTTTCCTAATCTTTCTGTTCAAGCGCCATCTAC | 0.911 RPM ratio (pull-down/input)
19 | GATGATTGTTCTCCCAGCTGATGAATTCGGGTTGTCGAGTAAACAAATTTTCCTAATCTTTCTGTTCAAGCGCCATCTAC | 0.917 RPM ratio (pull-down/input)
20 | GATGATTGTTCTCCCAGCTGATGAATTCAGAAAGTCGAGTAAACAAATTTTCCTAATCTTTCTGTTCAAGCGCCATCTAC | 0.853 RPM ratio (pull-down/input)

Row | Sequence | binding signal
21 | GATGATTGTTCTCCCAGCTGATGAATTCACAGGCTCGAGTAAACAAATTTTCCTAATCTTTCTGTTCAAGCGCCATCTAC | 0.804 RPM ratio (pull-down/input)
22 | GATGATTGTTCTCCCAGCTGATGAATTGCCTGTTTCGAGTAAACAAATTTTCCTAATCTTTCTGTTCAAGCGCCATCTAC | 1.04 RPM ratio (pull-down/input)
23 | GATGATTGTTCTCCCAGCTGATGAATTTATTCCCTCGAGTAAACAAATTTTCCTAATCTTTCTGTTCAAGCGCCATCTAC | 1.02 RPM ratio (pull-down/input)
24 | GATGATTGTTCTCCCAGCTGATGAATTACGCATATCGAGTAAACAAATTTTCCTAATCTTTCTGTTCAAGCGCCATCTAC | 1.21 RPM ratio (pull-down/input)
25 | GATGATTGTTCTCCCAGCTGATGAATTGCTGATCTCGAGTAAACAAATTTTCCTAATCTTTCTGTTCAAGCGCCATCTAC | 1.03 RPM ratio (pull-down/input)
26 | GATGATTGTTCTCCCAGCTGATGAATTCAACCCATCGAGTAAACAAATTTTCCTAATCTTTCTGTTCAAGCGCCATCTAC | 0.915 RPM ratio (pull-down/input)
27 | GATGATTGTTCTCCCAGCTGATGAATTTTCATACTCGAGTAAACAAATTTTCCTAATCTTTCTGTTCAAGCGCCATCTAC | 0.974 RPM ratio (pull-down/input)
28 | GATGATTGTTCTCCCAGCTGATGAATTTCTCTTGTCGAGTAAACAAATTTTCCTAATCTTTCTGTTCAAGCGCCATCTAC | 0.879 RPM ratio (pull-down/input)
29 | GATGATTGTTCTCCCAGCTGATGAATTCGCCTCATCGAGTAAACAAATTTTCCTAATCTTTCTGTTCAAGCGCCATCTAC | 0.874 RPM ratio (pull-down/input)
30 | GATGATTGTTCTCCCAGCTGATGAATTCGGTACCTCGAGTAAACAAATTTTCCTAATCTTTCTGTTCAAGCGCCATCTAC | 0.82 RPM ratio (pull-down/input)
31 | GATGATTGTTCTCCCAGCTGATGAATTACCTAGCTCGAGTAAACAAATTTTCCTAATCTTTCTGTTCAAGCGCCATCTAC | 0.978 RPM ratio (pull-down/input)
32 | GATGATTGTTCTCCCAGCTGATGAATTATTGATCTCGAGTAAACAAATTTTCCTAATCTTTCTGTTCAAGCGCCATCTAC | 1.39 RPM ratio (pull-down/input)
33 | GATGATTGTTCTCCCAGCTGATGAATTGTCGCTTTCGAGTAAACAAATTTTCCTAATCTTTCTGTTCAAGCGCCATCTAC | 1.17 RPM ratio (pull-down/input)
34 | GATGATTGTTCTCCCAGCTGATGAATTTTGGGTATCGAGTAAACAAATTTTCCTAATCTTTCTGTTCAAGCGCCATCTAC | 0.985 RPM ratio (pull-down/input)
35 | GATGATTGTTCTCCCAGCTGATGAATTCTCTTTCTCGAGTAAACAAATTTTCCTAATCTTTCTGTTCAAGCGCCATCTAC | 0.806 RPM ratio (pull-down/input)
36 | GATGATTGTTCTCCCAGCTGATGAATTCAGGAGCTCGAGTAAACAAATTTTCCTAATCTTTCTGTTCAAGCGCCATCTAC | 0.716 RPM ratio (pull-down/input)
37 | GATGATTGTTCTCCCAGCTGATGAATTTGCATGTTCGAGTAAACAAATTTTCCTAATCTTTCTGTTCAAGCGCCATCTAC | 1.09 RPM ratio (pull-down/input)
38 | GATGATTGTTCTCCCAGCTGATGAATTACCTGTCTCGAGTAAACAAATTTTCCTAATCTTTCTGTTCAAGCGCCATCTAC | 0.946 RPM ratio (pull-down/input)
39 | GATGATTGTTCTCCCAGCTGATGAATTGAACCCATCGAGTAAACAAATTTTCCTAATCTTTCTGTTCAAGCGCCATCTAC | 0.829 RPM ratio (pull-down/input)
40 | GATGATTGTTCTCCCAGCTGATGAATTCGTTCGATCGAGTAAACAAATTTTCCTAATCTTTCTGTTCAAGCGCCATCTAC | 0.911 RPM ratio (pull-down/input)
